According to PubChem BioAssay AID463173 (ICCB-Longwood Screening Facility, Harvard Medical School, 2010):
Screen size: about 52,000 compounds; about 4,300 (8.3%) were called active. Rule as the data show it: active = survival mostly below about 52% (no sharp cut-off); inactive = mostly above about 56%. This is one part of the list.

These compounds were tested on DeltatarO mutant (assay: growth inhibition of S. aureus wild type versus tarO mutant, primary screen, teichoic acid synthesis inhibitors, RN4220, OD600 (AID 463173)). Details: OD600, 18 h, stronger effect = lower value, screened at 18.75 µg/mL (by protocol).
For `COc1ccccc1NC(=O)N1CC(=O)Nc2sc3c(c2C1c1ccccc1)CCCC3` (configuration not stated), the survival was inactive: 93%. With `O=C(NCc1ccc2c(c1)CCN2C(=O)c1ccc(F)cc1)c1ccc(Br)o1` the survival was inactive: 79%. For `COCCCN1C(=O)N(c2ccccc2)C(=O)C1CC(=O)Nc1ccc(F)cc1` (configuration not stated), the survival was inactive: 83%. `COc1cccc(/C=N/n2c(-c3ccco3)nc3ccccc3c2=O)c1` was tested, and the survival was inactive: 100%. `Cc1cc(C)c(NC(=O)Cn2nc3c(cc2=O)CCCC3)c(C)c1` was tested, and the survival was inactive: 83%. For `COc1cc(OC)cc(C(=O)Nc2cc3nn(-c4ccccc4)nc3cc2Cl)c1`, the survival was inactive: 105%. In the case of `Cc1ccc(-c2onc(C)c2C)cc1S(=O)(=O)N1CCCCC1`, the survival is reported as inactive: 84%. For `O=C(Cn1c(=O)n(-c2ccc(F)cc2)c(=O)c2sc3ccccc3c21)N1CCCC1`, the survival was inactive: 79%. With `Cn1nc(C(=O)NCc2ccccc2)c2c1-c1ccccc1SC2` the survival was inactive: 76%. For `COc1ccc(-n2nc(C(=O)N3CCC(C)CC3)c3c4ccccc4n(C)c3c2=O)cc1Cl`, the survival was inactive: 87%. For `Cc1ccccc1NC(=O)CSc1nc(-c2ccc(F)cc2)c2cccc(C)c2n1`, the survival was inactive: 77%. With `COc1cc(CNC(=O)c2cc(-c3ccccc3)n[nH]2)cc(OC)c1OC` the survival was inactive: 90%. `CCc1nn(CC(=O)NCCc2ccc(OC)cc2OC)c(=O)c2cc3sccc3n12` was tested, and the survival was inactive: 134%. `COc1cccc(CNC(=O)Cn2cc3c(n2)-c2c(oc(C(=O)N4CCCC4)c2C)CC3)c1OC` was tested, and the survival was inactive: 81%. With `COc1ccc(-c2noc(-c3ccc(NCc4ccc(C)cc4)c([N+](=O)[O-])c3)n2)cc1OC` the survival was inactive: 69%. In the case of `Cn1c(=O)c2c(nc(SCC(=O)Nc3ccc(OC(F)(F)F)cc3)n2Cc2cccc(C(F)(F)F)c2)n(C)c1=O`, the survival is reported as inactive: 86%. `O=C(C1Cc2ccccc2CN1S(=O)(=O)c1ccc(F)cc1)N1CCCCC1` (configuration not stated) was tested, and the survival was inactive: 99%. With `Cc1ccc(S(=O)(=O)Nc2cc3c(cc2C)n(C)c(=O)c(=O)n3C)cc1` the survival was active: -2%. In the case of `COc1cccc(C2N(c3ccccc3)CCN2c2ccccc2)c1OC`, the survival is reported as inactive: 85%. In the case of `Cc1cccc(N2CCN(S(=O)(=O)c3cc(Br)cc4c3N(C(=O)C3CC3)CC4)CC2C)c1` (configuration not stated), the survival is reported as inactive: 61%. With `COc1ccc(CCn2cc3c(c2-c2ccccc2Br)c(=O)n(C)c(=O)n3C)cc1OC` the survival was inactive: 67%. `CCCc1noc(-c2ccc(N3CCCCC3)c([N+](=O)[O-])c2)n1` was tested, and the survival was inactive: 79%. `COc1cc(NC(=O)Cn2ncc3c(=O)oc4ccccc4c32)cc(OC)c1OC` was tested, and the survival was inactive: 96%. For `CCc1ccc(S(=O)(=O)c2nnn3c2nc(NCCc2ccccc2)c2sccc23)cc1`, the survival was inactive: 70%. With `Cc1nc2c(cnn2-c2ccccc2Cl)c(=O)n1-c1ccc(C(C)C)cc1` the survival was inactive: 111%. In the case of `COc1cccc(-c2nc(SCC(=O)Nc3ccc4c(c3)OCO4)c(-c3ccccc3)[nH]2)c1`, the survival is reported as active: 31%. `Cc1ccc2cc(CN(CCN(C)C)C(=O)NC3CCCCC3)c(=O)[nH]c2c1` was tested, and the survival was inactive: 101%. `CCOC(=O)N1CC=C2C(C#N)=C(N)C(C#N)(C#N)C(CC)C2C1` (configuration not stated) was tested, and the survival was inactive: 80%. With `Cc1ccc(OC(=O)c2cc(-c3ccccc3)nc3ccc(C)cc23)cc1` the survival was active: 49%. With `COCCNC(=O)c1ccc2c(c1)N(Cc1cccc(Cl)c1)C(=O)c1ccccc1S2(=O)=O` the survival was inactive: 91%. With `COc1ccccc1Oc1nc2c(c(=O)n(C)c(=O)n2C)n1Cc1cccc(Br)c1` the survival was active: 40%. In the case of `O=S(=O)(NCc1ccc2c(c1)OCO2)c1ccc(S(=O)(=O)NC2CCCCC2)cc1`, the survival is reported as inactive: 70%. With `CC(=O)Nc1ccc(S(=O)(=O)Nc2cccc(-c3ccc(N4CCC(C)CC4)nn3)c2)cc1` the survival was inactive: 115%. With `COc1ccc2c(Sc3ccccc3)c(C(=O)NCc3cccc(OC)c3OC)[nH]c2c1` the survival was inactive: 78%. In the case of `CCOc1ccc(CCNC(=O)CCCc2nnc3n(CC(C)C)c(=O)c4sccc4n23)cc1`, the survival is reported as inactive: 78%. In the case of `CCOC(=O)c1cc(S(=O)(=O)Nc2ccc(OC)c(Cl)c2)[nH]n1`, the survival is reported as active: -4%. With `CCOC(=O)C1(C)C=C(Nc2ccc(C(N)=O)cc2)C(=O)N1c1ccccc1` (configuration not stated) the survival was inactive: 68%. In the case of `CN1C(=O)Cc2cc(S(=O)(=O)CCC(=O)Nc3cccc(C(F)(F)F)c3)ccc21`, the survival is reported as inactive: 89%. With `CC(C)OCCCn1c(SCc2cccc(Br)c2)nc2c(sc3ccccc32)c1=O` the survival was inactive: 88%. `Cc1cc(-c2ccc(N3C(=O)CCC3=O)c(C)c2)ccc1N1C(=O)CCC1=O` was tested, and the survival was inactive: 71%. In the case of `CCOCCCNC(=O)C(c1ccc(OC)cc1)N(Cc1cccs1)C(=O)c1ccc(NC(C)=O)cc1` (configuration not stated), the survival is reported as inactive: 53%. In the case of `Oc1cccc(C(Nc2ccccn2)c2ccc3cccnc3c2O)c1Cl` (configuration not stated), the survival is reported as active: 26%. `CCn1c(CN2CCC(C)CC2)nc2cc(NC(=O)c3ccccc3[N+](=O)[O-])ccc21` was tested, and the survival was inactive: 86%. With `Cc1ccc(C)c(Cn2c(=O)c3c(nc4n3CCN4c3ccc(F)cc3)n(C)c2=O)c1` the survival was inactive: 88%. In the case of `CCOc1ccc(-n2c(Cc3ccccc3)nnc2SCc2nc(-c3ccccc3C)no2)cc1`, the survival is reported as inactive: 56%. For `CCOC(=O)c1c(C)[nH]c(CCC(=O)NCCCN2CCN(c3cccc(Cl)c3)CC2)c1C`, the survival was inactive: 75%. For `CCc1ccc(OC(=O)CSc2nnc(-c3ccc4c(c3)OCO4)o2)cc1`, the survival was inactive: 79%. In the case of `Cc1ccc(NC(=O)C(=O)NCC(c2cccnc2)N2CCOCC2)cc1C` (configuration not stated), the survival is reported as inactive: 92%. In the case of `CCS(=O)(=O)N1CCc2cc(C(=O)N3CCN(c4cccc(C(F)(F)F)c4)CC3)ccc21`, the survival is reported as inactive: 52%. With `CC(C)N(C(=O)c1cc2sccc2n1Cc1ccc(F)cc1)C(C)C` the survival was inactive: 104%. `NC(=O)C1CCN(CC(=O)Nc2ccccc2)CC1` was tested, and the survival was inactive: 96%. `CCCCC(CC)C(=O)Nc1nnc(C(C)C)s1` (configuration not stated) was tested, and the survival was inactive: 91%. `COc1ccc2oc(=O)cc(CN3CCN(C(=O)c4ccccc4F)CC3)c2c1` was tested, and the survival was active: 36%. With `CCOc1ccc2nc(Cl)c(CN(Cc3ccco3)C(=O)C3CC3)cc2c1` the survival was inactive: 106%. With `COc1cccc(-c2cn3c(n2)sc2cc(C(=O)NCc4cccs4)ccc23)c1` the survival was inactive: 57%. In the case of `COc1ccc(CNC(=O)Cn2ccc3cc(S(=O)(=O)N4CCCCCC4)ccc32)cc1OC`, the survival is reported as inactive: 108%. With `CCCN(CCC)CCCNC(=O)C1CCC(CNS(=O)(=O)c2ccc(NC(C)=O)cc2)CC1` (configuration not stated) the survival was inactive: 84%. With `COc1cccc(CNC(=O)CCc2nnc3n(C)c(=O)c4sccc4n23)c1` the survival was inactive: 63%. With `CC(=O)Nc1ccc(NC(=O)CC2Sc3ccccc3NC2=O)cc1` (configuration not stated) the survival was inactive: 177%. `Cc1ccc(Cl)cc1N1CCN(C(=O)c2cc(S(=O)(=O)N3CCC(C)CC3)cn2C)CC1` was tested, and the survival was inactive: 89%. With `CCOc1ccc(CNC(=O)C2CCN(S(=O)(=O)c3c(C)noc3/C=C/c3ccc(C)cc3)CC2)cc1OC` the survival was inactive: 81%. For `CCOc1ccc(CNS(=O)(=O)c2ccc3[nH]c4c(c3c2)CCCC4)cc1OC`, the survival was inactive: 81%. For `Cc1c(CNCc2ccc(Cl)cc2)c(C(=O)O)c(C)n1Cc1ccc(F)cc1`, the survival was inactive: 77%. For `CN(C)c1nc(C#N)nc(N2CCOCC2)n1`, the survival was inactive: 72%. For `COc1ccc(C(CNC(=O)COc2ccc(C)c(C)c2)N2CCCCC2)cc1` (configuration not stated), the survival was inactive: 89%. For `CN1CCN(S(=O)(=O)c2ccc(NC(=O)COc3ccccc3Cl)cc2)CC1`, the survival was inactive: 106%. For `Cc1ccccc1CSc1cn(CCNC(=O)c2cccs2)c2ccccc12`, the survival was inactive: 65%. In the case of `CCC(O)c1nc2ccccc2n1Cc1cccc(Cl)c1` (configuration not stated), the survival is reported as inactive: 83%. For `CCOC(=O)Cc1ccc(NC(=O)n2ncc3c(C)cccc32)cc1`, the survival was inactive: 76%. With `CCOC(=O)c1c(C)oc2nc(C)nc(Nc3cccc(OC)c3)c12` the survival was inactive: 78%. For `CCN1C(=O)N(CC)C2NC(=S)NNC21` (configuration not stated), the survival was inactive: 91%. `CCOc1ccc(CC(=O)Nc2c(C(=O)c3ccc(F)cc3)oc3ccccc23)cc1OCC` was tested, and the survival was active: 42%. For `Cc1ccc(-c2nc3c(c(SCC(=O)N4CCCCC4)n2)Cc2cc(C)ccc2O3)cc1`, the survival was inactive: 69%. `CCn1c(CNC(=O)c2ccc(OC)cc2)nnc1SCC(=O)Nc1ccc(OC)cc1` was tested, and the survival was inactive: 132%. In the case of `O=C(CN1C(=O)c2ccccc2C1=O)OC(C(=O)NC1CCCC1)c1ccncc1` (configuration not stated), the survival is reported as inactive: 104%. With `Cc1ccccc1CNC(=O)C(C)n1nc(C)n2c(cc3occc32)c1=O` (configuration not stated) the survival was inactive: 68%. `COc1ccc(CC(=O)Nc2nc3c(s2)CC(C(C)(C)C)CC3)cc1` (configuration not stated) was tested, and the survival was active: 29%. With `Cc1ccc(NC(=O)CN2C(=O)CCSc3ccc(S(=O)(=O)N4CCCC4)cc32)cc1` the survival was inactive: 86%. In the case of `COc1ccc(NC(=O)C2=CC(c3cccs3)=NS(=O)(=O)N2C)cc1`, the survival is reported as inactive: 94%. For `O=C1CC(c2nc3ccccc3n2CCCCOc2ccccc2)CN1c1ccccc1Cl` (configuration not stated), the survival was inactive: 58%. In the case of `CC1CCCCN1Cc1c(O)ccc2c(=O)c(-c3cccc(Cl)c3)c(C(F)(F)F)oc12` (configuration not stated), the survival is reported as inactive: 59%. For `CCc1nnc(NC(=O)CSc2nc3c([nH]c4ccccc43)c(=O)n2-c2cc(C)cc(C)c2)s1`, the survival was inactive: 87%. In the case of `O=C(NCCc1ccccc1)c1ccc2c(c1)N(Cc1ccccc1Cl)C(=O)c1ccccc1S2`, the survival is reported as inactive: 94%. With `CC(C)NC(=O)Nc1ccc2c(c1)N(C)C(=O)c1ccccc1S2` the survival was inactive: 117%. In the case of `COc1ccc(-c2nc3scc(CCNS(=O)(=O)c4ccc(F)cc4F)n3n2)cc1OC`, the survival is reported as inactive: 72%. With `CCOC(=O)c1cccc(NC(=O)CSc2ncc3c(n2)-c2ccccc2N(C)S3(=O)=O)c1` the survival was inactive: 55%. `COc1ccccc1CNC(=O)C(Cc1ccccc1)NS(=O)(=O)c1ccc2c(c1)oc(=O)n2C` (configuration not stated) was tested, and the survival was inactive: 63%.
